Out of some 110,000 compounds screened, about 610 (0.55%) were called active. This list was built around the results that the source calls inconclusive (neither active nor inactive); the mix of calls is not that of the screen. Calls follow the shape of the dose curve; as a rule, active = well fitted inhibition curve with a large enough effect; inconclusive = small, poorly fitted or top-dose-only effect; inactive = no such curve, though single readings can be large or run the other way. A potency beside an inconclusive call is a rough fit, not a confirmed value.
Biological target: Polyunsaturated fatty acid lipoxygenase ALOX15B (Homo sapiens) (UniProt O15296)
UniProt O15296, sequence (O15296 whole entry, looked up): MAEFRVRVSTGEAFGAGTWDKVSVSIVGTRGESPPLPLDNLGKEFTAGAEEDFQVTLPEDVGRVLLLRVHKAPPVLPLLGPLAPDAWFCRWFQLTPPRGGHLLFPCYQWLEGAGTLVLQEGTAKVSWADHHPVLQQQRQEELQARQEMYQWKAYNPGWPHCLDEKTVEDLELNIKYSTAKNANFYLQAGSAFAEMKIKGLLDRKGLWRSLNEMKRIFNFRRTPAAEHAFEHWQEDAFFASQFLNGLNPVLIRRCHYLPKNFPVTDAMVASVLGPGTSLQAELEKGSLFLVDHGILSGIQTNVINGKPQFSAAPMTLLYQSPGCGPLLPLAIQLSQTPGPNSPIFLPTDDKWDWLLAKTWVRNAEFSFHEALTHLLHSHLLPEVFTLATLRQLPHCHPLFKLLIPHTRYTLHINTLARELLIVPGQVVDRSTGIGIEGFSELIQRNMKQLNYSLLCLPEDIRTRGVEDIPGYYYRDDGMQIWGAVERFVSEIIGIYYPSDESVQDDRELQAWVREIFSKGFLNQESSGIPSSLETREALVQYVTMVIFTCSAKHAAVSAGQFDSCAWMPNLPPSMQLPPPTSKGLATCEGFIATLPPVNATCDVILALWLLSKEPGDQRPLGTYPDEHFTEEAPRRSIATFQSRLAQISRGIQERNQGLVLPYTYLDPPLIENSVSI
Test: qHTS Assay for Inhibitors of 15-hLO-2 (15-human lipoxygenase 2); also: nearly all actives have a fitted effect of over 60% in size
Details: purified 15hLO-2, xylenol orange hydroperoxide absorbance; activity change, negative = inhibition: at 57.1 µM (top of the series) unless noted
Method in brief: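 Purified human 15hLO-2 (50 nM) preincubated 15 min with compound, then 45 uM arachidonic acid for 90 min at RT in 25 mM Hepes pH 7.5, 0.01% Triton X-100. Hydroperoxide detected by Fe-xylenol orange; 573/405 nm absorbance ratio.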
% is scaled to controls: 0 for no effect and ±100 for the full control effect; potency is read from the fitted curve at half-maximal effect; tags tell the direction and shape of the fitted curve.

Compound | Potency | activity change, negative = inhibition
Cc1cc2ccccc2n1CCNC(=O)Cc1cccc2ccccc12 | inactive | 
O=[N+]([O-])c1ccc(N/N=C/c2cn(-c3ccccc3)nc2-c2ccccc2)cc1 | inconclusive: 20 µM [inhibitor, partial curve] | 
N#Cc1c(-c2ccco2)cc(-c2cccnc2)nc1N | inconclusive: 12.6 µM [inhibitor, partial curve] | 
CCN(CC)C(=O)c1cc(-c2ccccc2OC)on1 | inconclusive: 0.251 µM [inhibitor, full curve] | 
O=C(COC(=O)C12CC3CC(CC(C3)C1)C2)Nc1ncc(Cl)cc1Cl | inactive | 
C=CCN1CCc2c(cc(O)c(O)c2Br)[C@H](c2ccccc2)C1 | inconclusive: 10 µM [inhibitor, partial curve] | 
COc1ccc(/C=N\NC(=O)C2C(=O)NCC2c2ccccc2)cc1O (centres undefined) | inconclusive: 0.316 µM [inhibitor, full curve, poor fit] | 
O=C(NC1CCCCC1)C(c1ccccc1)N(C(=O)Cc1ccsc1)c1ccccc1 (centres undefined) |  | inactive: -17.2% [at 11.4 µM]
CCSC1=N/C(=C\c2ccc(-c3ccccc3[N+](=O)[O-])o2)C(=O)S1 | inconclusive: 12.6 µM [inhibitor, partial curve] | 
C[C@@](N)(Cc1ccc(O)c(O)c1)C(=O)O | inconclusive: 0.631 µM [inhibitor, full curve, poor fit] | 
Cc1ccc2cn[nH]c2c1NC(=S)NC(=O)c1ccccc1 | inconclusive: 25.1 µM [inhibitor, partial curve] | 
Cc1ccc(-n2c(=O)[nH]c3c(C(N)=O)nc(-c4ccc(C)o4)nc32)cc1 | inconclusive: 31.6 µM [inhibitor, single point] | 
CC(=O)NC1C(OCCOc2ccc(Cl)cc2Cl)OC(COC(C)=O)C(OC(C)=O)C1OC(C)=O (centres undefined) | inactive | 
Cc1ccc(S(=O)(=O)NNC(=S)Nc2ccccc2)cc1 | inconclusive: 10 µM [inhibitor, partial curve] | 
COCc1cc(=O)n2c(-c3ccccc3OC)n[nH]c2n1 | inactive | 
N#CC1=C(N)SC(N)=C(C#N)C1Cc1ccccc1 | inconclusive: 15.8 µM [inhibitor, partial curve] | 
COc1cc(O)c2c(O)c3c(c4c2c1[C@@]1(C4)C(C)=CCCC1(C)C)[C@H](O)[C@@]1(O)CC(=O)C(C(N)=O)=C(O)[C@]1(O)C3=O | inconclusive: 3.98 µM [inhibitor, single point] | 
COc1ccccc1CCN1C(=S)NC(C)(C)CC1(C)O (centres undefined) | inconclusive: 25.1 µM [inhibitor, partial curve] | 
CSc1ccc(Cl)c(C(=O)NCc2ccco2)c1 | inactive | 
COC(=O)c1ccccc1NC(=O)c1cncc(Br)c1 | inconclusive: 5.01 µM [inhibitor, full curve, poor fit] | 
Oc1c(-c2cc(-c3ccco3)[nH]n2)ccc2ccccc12 | inactive | 
COc1cc(/C=N/Nc2snc(SC)c2C#N)cc(OC)c1OC | inconclusive: 39.8 µM [inhibitor, single point] | 
Cc1ccc(-c2c3c(=O)n(C)c(=O)n(C)c3cn2-c2ccccc2O)cc1 | inconclusive: 31.6 µM [inhibitor, single point] | 

Compound | Potency | activity change, negative = inhibition
N#Cc1cccc(NC(=O)CSc2ccc3c4c(cccc24)C(=O)c2ccccc2-3)c1 | active: 12.6 µM | 
C=CCn1c(=N)c(C(=O)NCCCOC)cc2c(=O)n3cccc(C)c3nc21 | inactive | 
C=CCn1c(CCC(=O)O)ccc1-c1ccccc1 | inconclusive: 5.01 µM [inhibitor, single point] | 
CCOCCOC(=O)C1=C(C)Nc2ccc(C)cc2S1 | active: 15.8 µM | 
CC(=O)c1ccc(NC(=O)CSCCO)cc1 | inactive | 
N=c1c(S(=O)(=O)c2ccccc2)cc2c(=O)n3ccccc3nc2n1Cc1ccco1 | inconclusive: 25.1 µM [inhibitor, single point] | 
CNc1ccc(Br)cc(C(=O)/C=C/c2ccc3c(c2)OCO3)c1=O | inconclusive: 20 µM [inhibitor, partial curve] | 
COc1ccc(C(=O)N2CCC3(CCN(CC(C)C)CC3)CC2)cc1 | inactive | 
Cc1ccc(N2C(=O)[C@@H]3[C@H](C2=O)C2c4ccccc4C=CN2[C@@H]3C(=O)c2ccco2)cc1 (some centres undefined) | inconclusive: 10 µM [inhibitor, partial curve] | 
COC(=O)c1ccc(OCCN2C3=NCCN3c3ccccc32)cc1 | inconclusive: 3.16 µM [inhibitor, single point] | 
Cc1cc(=O)oc2c1ccc1oc(/C(=N/O)c3ccccc3)c(C)c12 | inconclusive: 20 µM [inhibitor, partial curve] | 
COc1ccccc1NS(=O)(=O)c1ccc(C(=O)OCC(=O)NCc2ccco2)cc1 | inconclusive: 20 µM [inhibitor, single point] | 
CCOc1ccc(NC(=O)N(C2CCCCC2)C(C)c2ccncc2)cc1 (centres undefined) | inconclusive: 0.251 µM [inhibitor, full curve] | 
COc1cccc(N2CCN(c3ccc(S(=O)(=O)N4CCCC4)cc3)CC2)c1 | inconclusive: 3.16 µM [inhibitor, full curve, poor fit] | 
CN(C1CCCCC1)S(=O)(=O)Cc1ccccc1 | inconclusive: 31.6 µM [inhibitor, single point] | 
COc1ccccc1N1CCN(S(=O)(=O)c2ccc3c4c(cccc24)C(=O)N3C)CC1 |  | inactive: 6.72% [at 2.29 µM]
CN(C)c1ccc(Nc2nc(-c3cccnc3)cs2)cc1 | inconclusive: 2 µM [inhibitor, full curve] | 
CCOc1ccc2[nH]c(=O)c(CN(CCO)Cc3nnnn3CCc3ccccc3)cc2c1 | inactive | 
CCCn1c(N)[n+](CC(=O)c2ccco2)c2ccccc21 | inconclusive: 0.316 µM [inhibitor, full curve, poor fit] | 
Clc1ccc(-c2nc3ncccn3c2Nc2ccc3c(c2)OCO3)cc1 | inconclusive: 10 µM [inhibitor, partial curve] | 
CCOc1cc(NC(=S)Nc2cccc(OC)c2)c(OCC)cc1NC(=O)C1CC1 | inconclusive: 12.6 µM [inhibitor, partial curve] | 
CC[C@H]1C(c2cccc(Cl)c2)=NN(c2ccccc2)[C@@H]1CO | inconclusive: 44.7 µM [inhibitor, single point] | 
Cc1nc(SCC(=O)NCc2ccccc2)c2oc3ccccc3c2n1 | inconclusive: 31.6 µM [inhibitor, single point] | 

Compound | Potency | activity change, negative = inhibition
O=C(c1ccccc1)N1CCN(c2ccc(NCc3ccc4c(c3)OCO4)cc2)CC1 | active: 20 µM | 
Cc1cc(=O)[nH]c(SCCOc2ccc3c(c2)CCC3)n1 | inactive | 
CCC(=O)NC(=S)Nc1ccc(NC(=O)COc2ccc(Cl)cc2Cl)cc1 | inconclusive: 25.1 µM [inhibitor, single point] | 
CCCC(=O)Nc1cc(Cl)ccc1N1CCN(C(=O)CC)CC1 | inactive | 
Cc1ccc(C(=O)O)cc1-c1ccc(/C=C2/NC(=O)N(c3ccccc3)C2=O)o1 | inconclusive: 15.8 µM [inhibitor, partial curve] | 
CCOC(=O)c1sc(=S)n(-c2ccc(C)cc2)c1SC | inconclusive: 20 µM [inhibitor, single point] | 
O=C(Nc1ccccc1)c1nnsc1S(=O)(=O)c1ccc(Cl)cc1 | inconclusive: 5.01 µM [inhibitor, partial curve] | 
COc1cc(NS(=O)(=O)c2ccc(NC(=S)NC(=O)C3CCCC3)cc2)nc(OC)n1 | inconclusive: 25.1 µM [inhibitor, partial curve] | 
O=C1c2sc3nc4n(c(=O)c3c2CCC1Br)CCCCC4 (centres undefined) | inconclusive: 15.8 µM [inhibitor, partial curve] | 
CCN1C(=S)SC(=O)C1=C1C=C(C)N(Cc2ccco2)C(C)=C1 | inconclusive: 15.8 µM [inhibitor, partial curve] | 
Cc1ccc(S(=O)(=O)n2ccnc2)cc1C | inactive | 
O=C(CCc1ccc(O)cc1)c1c(O)cc(O)cc1O | inconclusive: 12.6 µM [inhibitor, partial curve] | 
CCOC(=O)Cc1csc(-n2sc3ccccc3c2=O)n1 | active: 1.26 µM | 
COc1ccc(CNC(=O)COC(=O)c2cc(-c3cccs3)nc3ccccc23)cc1OC | inconclusive: 31.6 µM [inhibitor, single point] | 
COC(=O)CSc1nnc(CNC(=O)Cc2ccccc2)n1-c1ccccc1OC | inactive | 
CC[n+]1cc(-c2ccccc2)nc(N2CCOCC2)n1 | inconclusive: 39.8 µM [inhibitor, single point] | 
CC(C)(C)C(=O)COC(=O)c1cccc(NC(=O)c2ccco2)c1 | inactive | 
O=C1c2ccc(O)c(O)c2C(=O)c2c(O)ccc(O)c21 | inconclusive: 0.631 µM [inhibitor, full curve, poor fit] | 
Cc1cccc(C(=O)NNC2=C(C(=O)C(F)(F)F)CCC2)c1O | inconclusive: 39.8 µM [inhibitor, single point] | 
O=C(CC1N=C2c3ccccc3N=C(SCc3ccccc3Cl)N2C1=O)NCc1ccco1 (centres undefined) | inconclusive: 20 µM [inhibitor, single point] | 
Cc1cccc(C)c1NC(=O)CN1C(=O)S/C(=C\c2cccn2-c2cccc(C(=O)O)c2)C1=O | inconclusive: 25.1 µM [inhibitor, partial curve] | 
OC[C@H](S)CS | inconclusive: 2 µM [inhibitor, partial curve] | 
Cc1cc2oc(=O)cc(-c3ccccc3)c2c(C)c1-c1ccc(O)cc1 | inconclusive: 15.8 µM [inhibitor, partial curve] | 

From PubChem BioAssay AID881 (National Center for Advancing Translational Sciences (NCATS), 2007)
